# Measured values reported in the supplement of paper PMC3334620.
# In all, about 33,000 sequences were measured (“E-score (-0.5 to 0.5)”: median about -0.011, highest 2% from about 0.28 on). Some of the results follow.
# Molecular target: T1, Gcr1 (UniProt P07261)
# T1 sequence: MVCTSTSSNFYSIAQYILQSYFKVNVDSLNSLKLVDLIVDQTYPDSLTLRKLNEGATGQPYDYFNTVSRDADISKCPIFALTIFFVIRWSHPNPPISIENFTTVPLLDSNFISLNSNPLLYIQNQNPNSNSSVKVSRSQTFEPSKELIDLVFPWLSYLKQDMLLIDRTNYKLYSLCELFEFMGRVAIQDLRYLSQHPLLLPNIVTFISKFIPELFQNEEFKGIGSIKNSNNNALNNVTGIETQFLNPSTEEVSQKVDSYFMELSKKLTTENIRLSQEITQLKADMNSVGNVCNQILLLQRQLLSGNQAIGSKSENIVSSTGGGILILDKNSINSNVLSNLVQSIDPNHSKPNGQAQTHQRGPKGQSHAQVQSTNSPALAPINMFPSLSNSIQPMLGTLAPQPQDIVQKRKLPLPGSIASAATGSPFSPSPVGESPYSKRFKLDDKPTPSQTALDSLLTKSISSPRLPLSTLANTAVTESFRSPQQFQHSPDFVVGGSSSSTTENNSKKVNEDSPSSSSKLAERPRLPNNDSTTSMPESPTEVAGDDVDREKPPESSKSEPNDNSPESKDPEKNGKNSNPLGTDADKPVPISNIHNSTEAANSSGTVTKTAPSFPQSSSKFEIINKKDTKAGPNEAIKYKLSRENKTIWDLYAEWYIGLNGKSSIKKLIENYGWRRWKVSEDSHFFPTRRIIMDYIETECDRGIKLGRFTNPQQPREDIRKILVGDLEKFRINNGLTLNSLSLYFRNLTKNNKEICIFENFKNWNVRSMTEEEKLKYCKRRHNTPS
# Assay: PBM E-score (8-mer binding enrichment) (E-score (-0.5 to 0.5)); higher = stronger / more preferred TF binding; most listed sequences are background and not binding sites
# Details: protein concentration: 100 nM; construct: GST-full length
# Outline: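 GST-tagged yeast TFs (full-length or DNA-binding domain) were made by PURExpress in vitro transcription/translation and applied at about 100-200 nM to universal all-10-mer Agilent arrays. The arrays were made double-stranded by primer extension, on fresh or once-stripped slides. Bound protein was detected with fluorescent anti-GST, and scans were normalised with masliner. Each ungapped eight-base word, pooled with its reverse complement, received an E-score (modified Wilcoxon-Mann-Whitney statistic) from the Universal PBM Analysis Suite.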
row,Sequence,PBM E-score
1,CCCTCTCA,-0.131
2,TAATCCAA,0.134
3,CGTGGGAG,-0.106
4,CCGAACCC,-0.0679
5,CTTCCTAA,0.294
6,CCGCACTA,0.0887
7,ATATGTCC,-0.108
8,ACCCCCAT,-0.0624
9,ACAAGTTC,0.0303
10,CCAATGAG,-0.12
11,AGCTGTCG,-0.178
12,TATACAAA,0.0874
13,GTCGACAA,-0.214
14,GCCGCTTA,0.06
15,CCGAAGAG,-0.247
16,GGGCGTGA,-0.14
17,ACCGAGAG,0.0294
18,AACGGACC,-0.129
19,GGAACTAA,0.0124
20,AGCCAGAT,0.196
21,AGGCAAAA,0.0855
22,ATCACAGA,0.0319

row,Sequence,PBM E-score
1,CTGACGGC,-0.155
2,AATTACGC,0.106
3,GAAGTGCA,-0.0459
4,AGTGGGGC,0.12
5,GTCTAGCA,-0.0076
6,TTTGCAAA,0.21
7,TCACGTCA,0.0641
8,GCCCTAGC,0.0549
9,CATATTTA,0.0626
10,GCGGTCAA,-0.0507
11,CCGCGGTC,-0.269
12,AAGATAAT,-0.136
13,ACTCCAAG,0.052
14,ACGGTAAA,-0.0721
15,TAAAGTGA,0.0303
16,ACAGTGTA,-0.0798
17,ACAATGCG,-0.0857
18,ACCCTTGA,-0.201
19,GAGTTGCC,-0.0379
20,AAAAACGC,-0.0227
21,AGATGACG,-0.0775
22,AGAGCGAC,-0.0628

row,Sequence,PBM E-score
1,CCTATGAG,-0.0253
2,AAGACGTC,0.00239
3,CCCTCGAG,-0.0318
4,ACCTGCAG,-0.208
5,AACTGTCA,-0.152
6,AGTTGCGA,0.0737
7,AGCTAGTC,-0.0999
8,CATCTCGC,-0.136
9,ATCTAACG,0.0927
10,AGAAGCAC,0.126
11,CGGACCGC,-0.134
12,AATCTAGA,0.0499
13,GGTGCTCA,0.238
14,CGTTCTCC,-0.157
15,AGATCAGA,-0.0273
16,CGGATACC,0.274
17,ACCTAAGC,-0.0466
18,ACGTTAAG,-0.181
19,ACTGATAG,0.0688
20,TGCCACCA,0.0745
21,AGTAGGAC,-0.312
22,CAAGTCTC,-0.242

row,Sequence,PBM E-score
1,CAGCTGCA,-0.0536
2,TTACGTAA,-0.0317
3,AGCCCTTC,-0.0895
4,CAACTAAG,0.00446
5,GCTGCGCC,0.131
6,AGCAGTCG,-0.171
7,AAAGGTAT,0.0383
8,AGCCACCC,-0.003
9,ACCGAAAT,0.0979
10,AGCATAAA,0.107
11,GAACCAAA,0.113
12,ACGTCCAC,0.104
13,AGAACGAA,-0.0256
14,AGCCGTAC,-0.195
15,CGAGCATC,0.167
16,CGCGCCGA,0.0709
17,CCCGGCCA,-0.199
18,GATAAGAA,0.19
19,TGAAGACA,-0.1
20,TCTGGGCA,0.122
